Read counts are not given, so values of variants with three or more changes are uncertain.
B1: LINE1-mini (parent)
chain: GGCAGAGCUCAACACAGCGUGGCAAAGUGGCUGUGGCUAGACUGCC

Variants of: B1
Experiment: self-cleavage, relative activity (ratio to wild type); higher = more cleavage; in vitro, sequencing; the parent is a self-cleaving ribozyme
With C3A U20C U28C C31G C37A the self-cleavage was 0.05.
G2U C18G A25U C31G gave a self-cleavage of 0.
Work on A11U G27C C37A A41U yielded a self-cleavage of 0.02.
G2C A6C C13U C18A A24C G33A gave a self-cleavage of 0.02.
In the case of G1A G7U A11G, the self-cleavage is reported as 0.07.
For C18U C31U C45A, the self-cleavage was 0.02.
With C3G U20G G21U U38A A41G the self-cleavage was 0.12.
Work on A11G G17A U38C yielded a self-cleavage of 0.01.
A12C C18G U28G G33C G36A showed a self-cleavage of 0.
C8G U9A U38A showed a self-cleavage of 0.09.
Work on A26C C31U A39G G44C yielded a self-cleavage of 0.01.
For G2U A14U G19A G22U, the self-cleavage was 0.05.
With G27C U34A C42A the self-cleavage was 0.07.
G5A C8U A25U G30A U38C gave a self-cleavage of 0.08.
Variant A16U U38C A39C G44A has a self-cleavage of 0.
A4G C13A G33C A41G showed a self-cleavage of 0.05.
In the case of C8U C10G G30C U38C, the self-cleavage is reported as 0.02.
Variant C13G G44U C46A has a self-cleavage of 0.02.
Work on C3A A11C G33A C45G yielded a self-cleavage of 0.03.
A6U C8G C15A A16G gave a self-cleavage of 0.05.
With A25U G27A C42G the self-cleavage was 0.05.
Variant C18U U28A G29U has a self-cleavage of 0.29.
For A26C G33C A39G, the self-cleavage was 0.04.
C8A A14G G33U showed a self-cleavage of 0.08.
With A14G C23U U34C the self-cleavage was 1.46.
For C10A C18U G21U, the self-cleavage was 0.14.
Variant A6G C8A G27U has a self-cleavage of 0.12.
G22A G29U U32G G35U U38C gave a self-cleavage of 0.01.
In the case of A6G U20C A26U C46U, the self-cleavage is reported as 0.12.
Work on U20A G21A G27A C42U yielded a self-cleavage of 1.49.
With C3U C10G C13A G17A G30C the self-cleavage was 0.02.
With C10A A26U G36U the self-cleavage was 0.
Work on C15U G17U G40A yielded a self-cleavage of 0.04.
For G17U G29C G35C C42A, the self-cleavage was 0.02.
In the case of G2C G5U U32A U38A, the self-cleavage is reported as 0.01.
In the case of G1U C8A A16C G22U, the self-cleavage is reported as 0.11.
In the case of C13U G33U G40A, the self-cleavage is reported as 0.09.
With G1C G5A A6U C37A C42G the self-cleavage was 0.01.
C3U C37A U43A gave a self-cleavage of 0.03.
Work on G5A A16U G35C yielded a self-cleavage of 0.11.
With C3U G36U C46A the self-cleavage was 0.31.
In the case of C10A U20C G33A, the self-cleavage is reported as 0.01.
In the case of G2U G22C G29A C31G, the self-cleavage is reported as 0.04.
A4G C8U C31A G33C C37A A41C C45G showed a self-cleavage of 0.03.
In the case of C13G U20G G22U G30A, the self-cleavage is reported as 0.24.
Variant G5A A14U G17U G27C G36A G40U has a self-cleavage of 0.07.
U9C U34C U38A G40U showed a self-cleavage of 0.01.
Variant A6G U9A A16U has a self-cleavage of 0.01.
C3U A6U G7C C15G G21A C37U gave a self-cleavage of 0.04.
Variant G21C G36U U38A has a self-cleavage of 0.01.
C10G U20G C37A showed a self-cleavage of 0.
With A6G G17A C23U C42A C45U C46G the self-cleavage was 0.04.
With A12G C15G C31G U34A the self-cleavage was 0.02.
In the case of A25C U34G G36A U38A A39U G44A, the self-cleavage is reported as 0.
In the case of G2U U20G G27A A39G, the self-cleavage is reported as 0.
G2C C8G C45G gave a self-cleavage of 0.25.
A6C C10A G17C gave a self-cleavage of 0.06.
For A4U C10A C18U, the self-cleavage was 0.07.
Work on G2U G30A C42G yielded a self-cleavage of 0.06.
G22A C31G G44A showed a self-cleavage of 0.04.
With A12U G29A G35C the self-cleavage was 0.08.
In the case of C15U U32A C42A, the self-cleavage is reported as 0.06.
With G7U U20C G29U the self-cleavage was 0.06.
Work on G2A A6C A12C G33C G36A yielded a self-cleavage of 0.01.
A14U U32G C37U C42U gave a self-cleavage of 0.
With G22C A25C U28G C37A the self-cleavage was 0.01.
Variant A6G C8A U32G G35C has a self-cleavage of 0.07.
C10A G22U U28C C42G gave a self-cleavage of 0.
Work on C3U C10U U20A A24G G29A C45G yielded a self-cleavage of 0.07.
With G7A A12C G44C the self-cleavage was 0.05.
With C8U C15U G17A the self-cleavage was 0.12.
Work on G1C C15G G22C U38A yielded a self-cleavage of 0.
Variant C15A G17C A24U has a self-cleavage of 0.15.
Variant G2U C3U C8G C15A C18G C23U C37A has a self-cleavage of 0.12.
For C3A C10A C15A G22U, the self-cleavage was 0.07.
In the case of G7A C10U C18G U32C U34A, the self-cleavage is reported as 0.05.
For G5U C13U U38A A39C, the self-cleavage was 0.
Variant G2C A6C C31A A41G has a self-cleavage of 0.03.
G2U A26C G29A G33C showed a self-cleavage of 0.03.
A14C G33A G35U showed a self-cleavage of 0.13.
Variant A4C G21C G44C has a self-cleavage of 0.08.
Variant A4C A6C U9G G29C has a self-cleavage of 0.09.
With A26G G29U U43C the self-cleavage was 0.18.
With A11C A14U G21U G44C the self-cleavage was 0.04.
For G5C U9G U20C G22U A25U G29C, the self-cleavage was 0.06.
For A16U G17A C31G, the self-cleavage was 0.03.
With A12U G22U C31A U34C the self-cleavage was 0.04.
In the case of G5U A11U G40U, the self-cleavage is reported as 0.1.
In the case of A12G G22U C23U G30U A41C C42U, the self-cleavage is reported as 0.03.
In the case of C3A A11C G29A, the self-cleavage is reported as 0.04.
In the case of C13A G27U U28C G29A A39G, the self-cleavage is reported as 0.02.
Variant C15A G35U G44C has a self-cleavage of 0.03.
In the case of C18A G33U G36U, the self-cleavage is reported as 0.03.
C15U A16U G21U G30U showed a self-cleavage of 0.11.
Variant U9A A26U G35A C42G has a self-cleavage of 0.1.
G2A C3U A16U G19C U28G G36U gave a self-cleavage of 0.25.
In the case of G7U A16U G33A G35C, the self-cleavage is reported as 0.14.
Work on G1C C3G C10A G40U yielded a self-cleavage of 0.01.
With A16U C18A U20A C31A the self-cleavage was 0.03.
Work on G7C A16G G27U U43A yielded a self-cleavage of 0.12.
A4C C13U C45A C46U showed a self-cleavage of 0.02.
G2U C3A A6U A11G showed a self-cleavage of 0.
With G2C G7C A11U A25C the self-cleavage was 0.02.
In the case of A6U A16G G44U C45U C46A, the self-cleavage is reported as 0.06.
A4C C10G A14C G36U G40A C45A showed a self-cleavage of 0.01.
In the case of A11G G19U G29U U32A A41G G44U, the self-cleavage is reported as 0.01.
A12C U28A G33U G40C gave a self-cleavage of 0.03.
C8A A14C G19U G29U C31G gave a self-cleavage of 0.05.
In the case of G7C G35A G36C C45U, the self-cleavage is reported as 0.05.
With C8A A11G A25G G40A the self-cleavage was 0.02.
In the case of A4G A14G G30U U43A, the self-cleavage is reported as 0.08.
Work on G2C C10A A11G yielded a self-cleavage of 0.01.
G1A G2C G7U G33A C37G gave a self-cleavage of 0.38.
Work on G17U G22C U28C G29U G44A yielded a self-cleavage of 0.13.
G2A C13A A39C showed a self-cleavage of 0.25.
Variant G19A G22C C23A has a self-cleavage of 0.25.
G29U U32A C46U gave a self-cleavage of 0.04.
Variant C3U C18G C31A has a self-cleavage of 0.01.
With C3G U20A G35A C46A the self-cleavage was 0.05.
For C10A A11U C23G A25C U38A, the self-cleavage was 0.03.
With C3G A12U A24C G29U the self-cleavage was 0.05.
A4C G7A A26U G36U gave a self-cleavage of 0.22.
G5A U9G A24C G29C C37U gave a self-cleavage of 0.02.
Variant C13G A14C A24G G40A U43C has a self-cleavage of 0.03.
With A4C G22A A24C G33A the self-cleavage was 0.06.
In the case of C23U G36U U43C, the self-cleavage is reported as 0.06.
Variant C3A C10G C31A U34C has a self-cleavage of 0.01.
For G2A A25G C37U, the self-cleavage was 0.22.
For A26C G40U C46A, the self-cleavage was 0.1.
G7A C8A U9A G19A showed a self-cleavage of 0.22.
Variant C10A A12G U20C G30U has a self-cleavage of 0.02.
For A16G G21A G35A A39C A41U, the self-cleavage was 0.01.
G1C A4U G27U showed a self-cleavage of 0.04.
With C8U C13U C23A the self-cleavage was 0.05.
For G2C C15A C37A G44A, the self-cleavage was 0.17.
For A4U U9A A16U, the self-cleavage was 0.07.
G5U G22C U28A G40A gave a self-cleavage of 0.04.
In the case of G21A C23A G33C, the self-cleavage is reported as 0.04.
Work on C18G C37U A39U yielded a self-cleavage of 0.22.
A24C U38A C45U showed a self-cleavage of 0.32.
For C23U G30C C46U, the self-cleavage was 2.08.
In the case of A14U U38C G40C, the self-cleavage is reported as 0.
Work on A14U C15A U20C G21C A41C yielded a self-cleavage of 0.
A4U G29U C45G gave a self-cleavage of 0.09.
Work on C13G A16U C42G yielded a self-cleavage of 0.01.
With A6C C8G G30C U43C the self-cleavage was 0.02.
For U9G G21U U32G, the self-cleavage was 0.03.
Variant A14U A16C G27U has a self-cleavage of 0.17.
For A12G U28A G33C, the self-cleavage was 0.05.
Variant C3G A24U C42G has a self-cleavage of 0.06.
In the case of C10A A25G A39G, the self-cleavage is reported as 0.
Work on C3U C15A G33C yielded a self-cleavage of 0.06.
Variant G5U A14C G35U has a self-cleavage of 0.3.
C8G G17C U20C G40C gave a self-cleavage of 0.02.
A12U A25G G36U showed a self-cleavage of 0.06.
G1C C10A A26G G27A G30C gave a self-cleavage of 0.02.
With A4C C18A C23G A24C G30U C31A G40C G44A the self-cleavage was 0.
G1C C13A A26G G33A U43C showed a self-cleavage of 0.01.
For A6G G22C C46U, the self-cleavage was 0.02.
A24C C37G G40C showed a self-cleavage of 0.08.
Variant C13U C18A A26C has a self-cleavage of 0.05.
Variant A16G A26U C31A A41U has a self-cleavage of 0.02.
For A14C G30A C42U, the self-cleavage was 0.04.
For A4U G27A C37A U38G G40A, the self-cleavage was 0.01.
With G1C G17A C46U the self-cleavage was 0.06.
With U32G U34A A39G C45A the self-cleavage was 0.01.
For G17U G30U C37A, the self-cleavage was 0.19.

Source: the RNAGym collection of RNA variant scans (doi:10.7554/elife.90254)
